# Data as given in PubChem BioAssay (Tox21).
# Values joined by “and” are separate entries in the source; they are usually repeats but may differ in a detail not shown here. Identical values can stand only once. This list was built around the results that the source calls inconclusive (neither active nor inactive); the mix of calls is not that of the screen. A potency beside an inconclusive call is a rough fit, not a confirmed value. Active and inactive are the calls of the source. Unless noted, calls follow the shape of the dose curve; as a rule, active = well fitted curve in the direction sought with a large enough effect in the repeat runs; inconclusive = weak or mixed curves; inactive = no such curve, though single readings can be large; an effect the other way counts as inactive or inconclusive.
# Key:
# [1] = qHTS assay to identify small molecule antagonists of the estrogen receptor alpha (ER-alpha) signaling pathway - cell viability counter screen (AID 743074; calls by dose curve;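 also: HEK293 cells carrying ER-alpha-UAS-bla reporter stimulated with 17beta-estradiol; nearly all actives have a fitted effect of over 45% in size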)
# [2] = biological target: Estrogen receptor (Homo sapiens) (UniProt P03372); experiment: qHTS assay to identify small molecule agonists of the estrogen receptor alpha (ER-alpha) signaling pathway using the BG1 cell line (AID 743079); conditions: BG1Luc4E2 cells, ERE-luciferase agonist, 22 h; activation: at 70.3 µM (top of the series) unless noted; also: nearly all actives have a fitted effect of over 20% in size; as to activation: % is scaled to controls: 0 for no effect and ±100 for the full control effect
# [3] = qHTS assay to identify small molecule antagonists of the estrogen receptor alpha (ER-alpha) signaling pathway using the BG1 cell line - cell viability counter screen (AID 743081); conditions: BG1Luc4E2 viability, CellTiter-Fluor, 22 h; activity change, negative = cytotoxicity: at 70.3 µM (top of the series);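 also: compound given together with 17beta-estradiol as the ER stimulus; nearly all actives have a fitted effect of over 45% in size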; as to activity change, negative = cytotoxicity: % is scaled to controls: 0 for no effect and ±100 for the full control effect
# [4] = biological target: Aromatase (Homo sapiens) (UniProt P11511); experiment: qHTS assay to identify aromatase inhibitors (AID 743083); also: nearly all actives have a fitted effect of over 55% in size
# [5] = qHTS assay to identify aromatase inhibitors - cell viability counter screen (AID 743084); conditions: MCF-7 aro ERE viability, CellTiter-Fluor, 24 h; activity change, negative = cytotoxicity: at 70.3 µM (top of the series);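 also: cells stimulated with testosterone during compound exposure; nearly all actives have a fitted effect of over 55% in size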
# Potency is read from the fitted curve at half-maximal effect; tags tell the direction and shape of the fitted curve.
# UniProt P03372, sequence (P03372 whole entry, looked up): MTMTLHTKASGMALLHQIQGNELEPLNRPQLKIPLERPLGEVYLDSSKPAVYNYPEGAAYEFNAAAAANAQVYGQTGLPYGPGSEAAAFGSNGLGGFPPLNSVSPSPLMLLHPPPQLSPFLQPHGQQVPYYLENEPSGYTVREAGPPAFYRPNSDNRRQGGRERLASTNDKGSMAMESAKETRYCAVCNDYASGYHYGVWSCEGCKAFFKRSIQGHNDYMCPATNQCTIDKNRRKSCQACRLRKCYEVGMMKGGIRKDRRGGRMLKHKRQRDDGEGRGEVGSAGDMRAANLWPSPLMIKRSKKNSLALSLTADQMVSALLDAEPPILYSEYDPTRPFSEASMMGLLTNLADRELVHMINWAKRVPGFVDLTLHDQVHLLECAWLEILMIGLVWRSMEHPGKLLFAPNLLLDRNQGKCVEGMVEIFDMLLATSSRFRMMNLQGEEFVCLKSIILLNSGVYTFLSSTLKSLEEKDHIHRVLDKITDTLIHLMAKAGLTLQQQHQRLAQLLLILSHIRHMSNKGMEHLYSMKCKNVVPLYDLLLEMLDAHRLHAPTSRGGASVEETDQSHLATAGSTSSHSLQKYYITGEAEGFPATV
# UniProt P11511, sequence (P11511 whole entry, looked up): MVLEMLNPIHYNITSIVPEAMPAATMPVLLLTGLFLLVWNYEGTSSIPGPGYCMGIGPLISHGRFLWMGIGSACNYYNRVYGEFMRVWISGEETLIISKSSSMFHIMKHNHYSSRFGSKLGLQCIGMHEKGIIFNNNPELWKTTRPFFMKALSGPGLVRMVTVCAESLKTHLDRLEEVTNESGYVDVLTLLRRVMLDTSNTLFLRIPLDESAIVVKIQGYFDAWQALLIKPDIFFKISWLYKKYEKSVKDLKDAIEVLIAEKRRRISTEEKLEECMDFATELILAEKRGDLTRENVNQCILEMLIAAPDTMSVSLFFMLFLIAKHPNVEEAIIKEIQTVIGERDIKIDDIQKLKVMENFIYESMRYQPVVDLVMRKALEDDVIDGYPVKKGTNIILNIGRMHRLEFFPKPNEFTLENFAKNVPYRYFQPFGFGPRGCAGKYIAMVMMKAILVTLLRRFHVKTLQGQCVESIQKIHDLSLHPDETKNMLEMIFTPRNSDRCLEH
smiles,measurement,setting,value
CCc1cccc(O)c1,Potency,[1],"inconclusive: 7.12 µM [cytotoxic, partial curve, poor fit]"
same,activation,[2],inconclusive: 0.0804% [phenotype inactive] [at 95 µM]
Cc1ccc(C(=O)c2cc(O)c(O)c([N+](=O)[O-])c2)cc1,Potency,[1],"inconclusive: 23.9 µM [cytotoxic, single point] and inconclusive: 19.5 µM [cytotoxic, full curve, poor fit]"
same,Potency,[3],active: 33.5 µM and active: 54.5 µM
same,Potency,[4],"inconclusive: 29.8 µM [inhibitor, partial curve, poor fit] and inconclusive: 68.6 µM [inhibitor, single point]"
same,Potency,[5],"inconclusive: 68.6 µM [cytotoxic, single point]"
Nc1ccc(O)c(N)c1,Potency,[1],"inconclusive: 19.5 µM [cytotoxic, partial curve, poor fit]"
same,Potency,[2],"inconclusive: 30.4 µM [inhibitor, partial curve, poor fit] and inconclusive: 61.1 µM [inhibitor, partial curve]"
same,Potency,[3],active: 60.7 µM and active: 61.1 µM
same,Potency,[5],"active: 54.1 µM and inconclusive: 48.6 µM [cytotoxic, partial curve]"
NCCO,Potency,[1],"inconclusive: 21.9 µM [rising, single point]"
same,Potency,[3],inconclusive: 27.3 µM [cytotoxic]
CCCCCCCCCCCCCCC,Potency,[1],"inconclusive: 21.9 µM [rising, full curve, poor fit]"
same,Potency,[3],inactive
